Among the data in ChEMBL document CHEMBL4346670, “Discovery of Novel Janus Kinase (JAK) and Histone Deacetylase (HDAC) Dual Inhibitors for the Treatment of Hematological Malignancies” (J Med Chem, 2019) are inhibition values, retold here.

The target of the assay is Histone deacetylase 2 (Homo sapiens, UniProt Q92769). As to conditions: A549, at 80 to 400 nM.

Structures are written as SMILES. Active and inactive are the calls of the source. The calls are words filed in the database; no cut-off is given here.

UniProt Q92769, sequence (Q92769 whole entry): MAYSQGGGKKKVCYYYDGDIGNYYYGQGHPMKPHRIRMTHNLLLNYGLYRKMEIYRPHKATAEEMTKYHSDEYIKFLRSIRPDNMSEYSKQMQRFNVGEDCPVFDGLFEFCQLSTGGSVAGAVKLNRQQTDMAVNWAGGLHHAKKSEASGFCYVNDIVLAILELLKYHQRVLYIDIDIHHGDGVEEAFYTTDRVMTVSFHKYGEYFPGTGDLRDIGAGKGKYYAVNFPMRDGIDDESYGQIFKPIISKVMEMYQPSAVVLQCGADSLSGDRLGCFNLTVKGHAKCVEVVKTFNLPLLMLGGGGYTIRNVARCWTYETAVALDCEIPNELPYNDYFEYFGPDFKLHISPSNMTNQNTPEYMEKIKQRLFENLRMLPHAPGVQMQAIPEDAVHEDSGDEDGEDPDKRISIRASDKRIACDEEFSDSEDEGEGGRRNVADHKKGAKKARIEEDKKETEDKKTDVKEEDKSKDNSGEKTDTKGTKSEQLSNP

In the case of `O=C(CCCCCCn1cc(Nc2ncc(Cl)c(Nc3cccc(Cl)c3)n2)cn1)NO`, the inhibition result was “Active”.
